{
  "source": "paper PMC6919601",
  "about": "“Identification of Plasmodium dipeptidyl aminopeptidase allosteric inhibitors by high throughput screening” (PLoS ONE, 2019)",
  "note": "About 230 (0.21%) of roughly 110,000 compounds showed an effect of 50% or more. Some of the results follow.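 Also: 30 min substrate incubation versus DMSO and 10 µM JCP410 controls.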",
  "data": [
    {"biological_target": "DPAP1 (Plasmodium falciparum, UniProt Q8IIJ9)", "sequence (Q8IIJ9 whole entry, looked up)": "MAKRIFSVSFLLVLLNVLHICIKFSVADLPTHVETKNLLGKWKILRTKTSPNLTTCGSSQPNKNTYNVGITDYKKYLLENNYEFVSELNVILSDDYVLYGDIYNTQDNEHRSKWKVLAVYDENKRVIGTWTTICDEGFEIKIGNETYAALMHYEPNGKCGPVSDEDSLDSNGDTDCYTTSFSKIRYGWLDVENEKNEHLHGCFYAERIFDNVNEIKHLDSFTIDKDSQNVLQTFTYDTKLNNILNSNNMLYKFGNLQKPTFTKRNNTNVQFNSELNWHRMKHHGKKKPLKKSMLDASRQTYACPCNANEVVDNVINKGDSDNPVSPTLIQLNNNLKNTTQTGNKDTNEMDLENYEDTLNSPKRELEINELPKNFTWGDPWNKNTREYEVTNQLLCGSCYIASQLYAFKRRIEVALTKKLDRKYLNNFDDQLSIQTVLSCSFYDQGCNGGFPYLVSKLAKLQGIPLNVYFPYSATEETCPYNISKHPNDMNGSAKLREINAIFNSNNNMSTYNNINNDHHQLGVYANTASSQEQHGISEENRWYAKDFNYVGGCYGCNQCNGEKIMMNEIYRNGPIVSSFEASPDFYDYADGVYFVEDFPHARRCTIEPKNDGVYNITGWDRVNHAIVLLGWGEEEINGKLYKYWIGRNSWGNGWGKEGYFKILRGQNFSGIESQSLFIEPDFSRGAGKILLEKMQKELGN", "assay": "primary screen, percent inhibition; read by cleavage of a fluorogenic dipeptide substrate; higher = more effect of the substance", "parameters": "species or system P. falciparum D10 trophozoite lysates; single well", "units": {"% Inhibition @ 10 uM": "%"}, "values": [
      {"smiles": "N#CC1=C(N)OC2=C(CN(Cc3ccccc3)C/C2=C\\c2ccsc2)C1c1ccsc1", "note": "(stereo not shown)", "% Inhibition @ 10 uM": -1.98},
      {"smiles": "O=C(C1=C(O)C(=O)N(CCN2CCOCC2)C1c1cccc(Br)c1)c1ccco1", "note": "(stereo not shown)", "% Inhibition @ 10 uM": 4.42},
      {"smiles": "Cc1ccc(C(=O)/C=C/c2ccc(F)cc2)o1", "% Inhibition @ 10 uM": -0.128},
      {"smiles": "CC1(C)C=C(c2cc(Br)c(C3=CC(C)(C)NC(C)(C)C3)s2)CC(C)(C)N1", "% Inhibition @ 10 uM": -5.5},
      {"smiles": "Cc1cc(OCC(=O)O/N=C(\\N)c2cccnc2)cc(C)c1Cl", "% Inhibition @ 10 uM": -1.47},
      {"smiles": "CC(C)(C)c1ccc(/C=C/C(=O)NCc2cccnc2)cc1", "% Inhibition @ 10 uM": -1.33},
      {"smiles": "CCCNC1=C(N2CCCCC2)C(=O)c2ccccc2C1=O", "% Inhibition @ 10 uM": -1.37},
      {"smiles": "C=CCOc1ccccc1CN1CCC(C(=O)OCC)CC1", "% Inhibition @ 10 uM": -1.78},
      {"smiles": "CCOc1ccc(C(=O)Nc2ccc(N3CCN(C)CC3)cc2)cc1", "% Inhibition @ 10 uM": -9.24},
      {"smiles": "COc1ccc(-n2nc(C(=O)O)cc2-c2ccccc2)cc1", "% Inhibition @ 10 uM": -6.95},
      {"smiles": "COC(=O)C1=C(C)N(c2ccc(OC)cc2)C(C)=C(C(=O)OC)C1c1ccc(OC)cc1", "% Inhibition @ 10 uM": 3.01},
      {"smiles": "COc1cc(OC)c(C2Nc3cccc4cccc(c34)N2)c(OC)c1", "% Inhibition @ 10 uM": 4.33},
      {"smiles": "COc1ccc2[nH]c(NCc3ccccc3)nc2c1", "% Inhibition @ 10 uM": -2.91},
      {"smiles": "O=C(O)C1=NN(c2ccccc2)C(=O)/C1=C\\c1ccc(Cl)cc1", "% Inhibition @ 10 uM": 0.634},
      {"smiles": "Cc1cccc(OCCCCCc2c(C)n[nH]c2C)c1", "% Inhibition @ 10 uM": -2.18},
      {"smiles": "CCC(Cc1ccccc1)NC(=O)c1cc2sccc2n1C", "note": "(stereo not shown)", "% Inhibition @ 10 uM": -3.08},
      {"smiles": "CC(C)(C)S(=O)(=O)c1ccsc1Br", "% Inhibition @ 10 uM": 5.58},
      {"smiles": "CCOCCO/C(O)=C1\\C(C)=NC2=C(C(=O)CCC2)C1c1cc(Br)c(O)c(OCC)c1", "note": "(stereo not shown)", "% Inhibition @ 10 uM": 13.2},
      {"smiles": "Cc1ccc2nc3c(c(N)c2c1)C(=O)CC(C)(C)C3", "% Inhibition @ 10 uM": 5},
      {"smiles": "Oc1ccccc1-c1cc(-c2ccccc2)nc(N2CCCCC2)n1", "% Inhibition @ 10 uM": -2.47},
      {"smiles": "COc1ccccc1C1C=C(c2cccnc2)Nc2nc3ccccc3n21", "note": "(stereo not shown)", "% Inhibition @ 10 uM": -1.62},
      {"smiles": "CN1CCC(NCc2ccc(F)cc2)CC1", "% Inhibition @ 10 uM": -9.33},
      {"smiles": "COc1ccc(OC)c(-c2[nH]nc3c2C(c2ccc(C)o2)C(C#N)=C(N)O3)c1", "note": "(stereo not shown)", "% Inhibition @ 10 uM": -0.305},
      {"smiles": "Cc1cc(N2CCCC2)n2nc(C)nc2n1", "% Inhibition @ 10 uM": -2.19},
      {"smiles": "O=C(O)c1cc(C(=O)O)c2cc(Cl)ccc2n1", "% Inhibition @ 10 uM": 3.25},
      {"smiles": "COc1ccccc1N1CCN(C2CC(=O)N(c3ccc(C(=O)O)cc3)C2=O)CC1", "note": "(stereo not shown)", "% Inhibition @ 10 uM": -1.24},
      {"smiles": "Cc1cc(C)c(S(=O)(=O)N2CCN(Cc3ccccc3)CC2)c(C)c1", "% Inhibition @ 10 uM": -3.04},
      {"smiles": "O=C(Nc1ccc(C(=O)N2CCOCC2)cc1)Nc1cccc(Cl)c1", "% Inhibition @ 10 uM": 3.17}
    ]}
  ]
}
